Experimental data from patent US5885962, “Stem cell factor analog compositions and method” (Amgen Inc., dated 1999).

B1: rhSCF homodimer with isoaspartic acid in place of asparagine at position 10 (ligand)
chain: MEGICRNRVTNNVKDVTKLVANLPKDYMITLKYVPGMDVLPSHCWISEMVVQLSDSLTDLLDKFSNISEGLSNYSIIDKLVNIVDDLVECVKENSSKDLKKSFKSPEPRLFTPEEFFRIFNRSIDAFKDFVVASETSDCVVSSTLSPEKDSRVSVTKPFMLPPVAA
modifications: isoaspartic acid in place of asparagine at position 10 (mature numbering, Met at -1)
B2: SCF met […] (recombinant human met-1 SCF […], wild type) (ligand)
chain: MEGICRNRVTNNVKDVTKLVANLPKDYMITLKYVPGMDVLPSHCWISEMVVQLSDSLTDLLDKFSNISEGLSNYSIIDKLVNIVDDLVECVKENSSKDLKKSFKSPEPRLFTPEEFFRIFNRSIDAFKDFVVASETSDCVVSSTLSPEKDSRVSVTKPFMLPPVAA
B3: SCF met […] N10D (ligand)
chain: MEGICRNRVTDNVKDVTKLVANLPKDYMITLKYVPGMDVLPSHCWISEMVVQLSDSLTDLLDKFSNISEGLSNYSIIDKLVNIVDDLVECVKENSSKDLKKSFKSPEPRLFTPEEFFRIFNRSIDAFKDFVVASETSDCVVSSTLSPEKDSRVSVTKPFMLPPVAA
B4: SCF met […] N10D, N11D (ligand)
chain: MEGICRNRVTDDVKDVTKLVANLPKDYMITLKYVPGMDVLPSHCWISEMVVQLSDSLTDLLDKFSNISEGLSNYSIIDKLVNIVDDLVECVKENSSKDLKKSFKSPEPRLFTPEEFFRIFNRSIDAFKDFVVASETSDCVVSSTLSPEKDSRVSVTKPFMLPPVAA

Legend:
[1] = biological target: T1, SCF receptor (the c-kit receptor) (Homo sapiens (Human), UniProt P10721); experiment: cell-based or functional assay
[2] = biological target: T1, SCF receptor (the c-kit receptor); experiment: cell-based or functional assay; remark: listed apart in the source

| Binder | Cell proliferation assays [1] [fold less potent] | % activity, UT-7 bioassay [2] [%] | Half Maximal stimulation concentration (ng/ml), UT-7 bioassay, 3H-thymidine uptake [2] [ng/mL] |
| --- | --- | --- | --- |
| B1 | 50 | – | – |
| B2 | – | 100 | 5.4 |
| B3 | – | 154 | 3.5 |
| B4 | – | 160 | 3.2 |
